Assay results from the RNAGym collection of RNA variant scans (doi:10.1093/nar/gkz1192).
Read counts are not given, so values of variants with three or more changes are uncertain.

B1: CPEB3 Ribozyme (parent)
chain: UAACAGGGGGCCACAGCAGAAGCGUUCACGUCGCAGCCCCUGUCAGAUUCUGGUGAAUCUGCGAAUUCUGCUGUAUAUCUC

Variants of: B1
Test: self-cleavage, relative activity (ratio to wild type); higher = more cleavage; in vitro, sequencing
How it was run: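 After error-prone PCR and barcoding, CPEB3 ribozyme mutant libraries were transcribed with T7 RNA polymerase at 37°C for 5 hours, then given 15 min with DNase I before an EDTA stop, and they cleaved during both steps. Reverse transcription with template switching preceded Illumina sequencing. Relative activity divides a variant's cleaved/total read fraction by the unmutated ribozyme's. At least 5 reads were required per variant, and three batches were averaged.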
UAACAGGGGGCCACAGCAGUAGCGUUCACGUCGCCGCCCCUGUCAGACUCUGGUGAAUCUGCGAAUUCUGCUGUAUAUCUC showed a self-cleavage of 0.1. Variant UAACAGGGGGCCACAGCAGUAGCGUUCGCGUCGCAGCCCCUGUCAGACUCUGGUGUAUCUGCGAAUUCUGCUGUAUAUCUC has a self-cleavage of 0.22. For UAACAGGGGGCCACAGCAGUCGCGUUCACGUCGCAGCCCCUGUCAGAUUCUGGCGAAUCUGCGAAUCCUGCUGUAUAUCUC, the self-cleavage was 0.12. Variant UAACAGGGGGCCACAGCAGUAGCGUUCGCGUCACAGCCCCUGUCAGAUUCUGGCGAAUCUGCGAAUUCCGCUGUAUAUCUC has a self-cleavage of 0.07. With UAACAGGGGGCCACAGCAGUAGCGUUCUCGUCGCAGCCCCUGUCAGAUUCUGGUGAAUCUGCGAACUCUGCUGUAUAUCUC the self-cleavage was 0.22. With UAACAGGGGGCCACAGCAGUAGCGUUCACGUCGCAGCCCCUGUCGGAUUCUGGCGAAUCUGCGAAUUCUGCUGUAUAUCUC the self-cleavage was 0.14. UAACAGGGGGCCACAGCAGUAGCGUUCACGUCGCUGCCCCUGUCAGAUUCUGGUGAAUCUGCGAAUUCUGCUGUAAAUCUC showed a self-cleavage of 0.07. Variant UAACAGGGGGCCACAGCAGUAGCGUUCACGUCGCUGCCCCUGUCAGAUUCUGGUGAAUCCGCGAAUUCUGCUGUAUAUCUC has a self-cleavage of 0.08. UAACAGGGGGCCACAGCAGUAGCGUUCACGUCGCUGCCCCUGUCAGAUCCUGGUGAAUCUGCGAAUUCUGCUGUAUAUCUC showed a self-cleavage of 0.15. With UAACAGGGGGCCACAGCAGUGGCGUUCGCGUCGCAGCCCCUGUCAGAUUCUGGUGAAUCUGCGAAUUCUGCUGUAUAUCCC the self-cleavage was 0.07. With UAACAGGGGGCCACAGCAGGAGCGUUCACGUCGCAGCCCCUGUCAGAUUCUGGUGAAUCUGCGAACUCUGCUGUAUAUCCC the self-cleavage was 0.49. For UAACAGGGGGCCACAGCAGUGGUGUUCACGCCGCAGCCCCUGUCGGAUUCUGGUGAAUCUGCGAAUUCUGCAGUAUAACUC, the self-cleavage was 0.07. For UAACAGGGGGCCACAGCAGGAGCGUUCACGUCGCAGCCCCUGUCAGAUUCUGGUGAAUCUGCGAAUCCUGCUGUAUGUCUC, the self-cleavage was 0.96. For UAACAGGGGGCCACAGCAGUAGCGUUCACGUCGCCGCCCCUGUCAGAUUCUGGUGAAUCCGCGAAUUCUGCUGUAUAUCUC, the self-cleavage was 0.16. With UAACAGGGGGCCACAGCAGGAGCGUUCACGUCGCAGCCCCUGUCAGAUUCUGGUGAAUCUGCGAAAACUGCUGUAUAUCUC the self-cleavage was 0.33. UAACAGGGGGCCACAGCAGGAGCGUUCACGUCGCAGCCCCUGUCAGAUUCUGGUGAAACUGCGAACUCUGCUGUAUACCCC gave a self-cleavage of 0.17. Variant UAACAGGGGGCCACAGCAGUGGCGUUCACGUCGCAGCCCCAGUCAGAUCCUGGUGAAUCUGCGAAUUCUGCUGUAUACCUC has a self-cleavage of 0.07. UAACAGGGGGCCACAGCAGGAGCGUUCACGUCGCAGCCCCUGUCAGAUUCUGGUGAAUCUGCGAAUUCUGCCGUACAUCUC gave a self-cleavage of 0.3. With UAACAGGGGGCCACAGCAGUAGCGUUCUCGUCGCAGCCCCUGUCAGAUUCUGGUGAAUCUGCGGAUUCUGCUGUAUAUCUC the self-cleavage was 0.08. Variant UAACAGGGGGCCACAGCAGUGGCGUUCACGUCGCAGCCCCCGUCAGAUUCUGGUGAAUCUGCGAAUUCUGCUGUAUAUCUC has a self-cleavage of 0.18. For UAACAGGGGGCCACAGCAGUAGCGUUCGCGUCGCAGCCCCUGUCAGGUUCUGGUGAAUCUGCGAAUUCUGCUGUAUACCUC, the self-cleavage was 0.1. UAACAGGGGGCCACAGCAGUAGCGUUCACGUCGCUGCCCCUGUCAGAUUCAGGUGAACCUGCGGAUUCUGCAGUAUAUCUC showed a self-cleavage of 0.07. Work on UAACAGGGGGCCACAGCAGUGGCGUUCACGUCGCAGCCCCUGUCAGAUUCUUGUGAAUCUGCGAAUUCUGCUGUAUAUCUC yielded a self-cleavage of 0.18. Work on UAACAGGGGGCCACAGCAGUGGCGUUCACGUCGCAGCCCCUGUCAGAUCCUGGCGAUUCUGCGAAUUCUGCUGUUUAUCUC yielded a self-cleavage of 0.08. Work on UAACAGGGGGCCACAGCAGGAGCGUUCACGUCGCAGCCCCUGUCAGAUUCUGGUGAAUCGGCGAAUUCUGCUGUACAUCUC yielded a self-cleavage of 0.23. With UAACAGGGGGCCACAGCAGUAGCGUUCACGUCGCUGCCCCUGUCAGAUUCUGGUGAAUCUGCGAAUUCUGCCGUAUAUCUC the self-cleavage was 0.05. UAACAGGGGGCCACAGCAGUAGCGUUCACGUCGCAGCCCCUGUCGGAUUCUGGUGAAUCUGCGAGUUCAGCUGUAUAUCUC showed a self-cleavage of 0.23. UAACAGGGGGCCACAGCAGGAGCGUUCACGUCGCAGCCCCUGUCAGAUUCUGGUGAAUCUGCGAAUUCAGCGGUAUAUCAC gave a self-cleavage of 0.2. UAACAGGGGGCCACAGCAGGAGCGUUCACGUCGCAGCCCCUGUCAGAUUCUGGUGAAUCUGCGAAUUCUGCCGAAUAUCUC gave a self-cleavage of 1.01. UAACAGGGGGCCACAGCAGUUGCGUUCACGUCGCAGCCCCUGUCAGAUUCUGGUGAAUCGGCGAAUUCUGCUGUAUAUCUC gave a self-cleavage of 0.2. In the case of UAACAGGGGGCCACAGCAGGAGCGUUCACGUCGCAGCCCCUGUCAGAUUCUGGUGAAUCCGCGAAUUCUGCUGUAUACCUC, the self-cleavage is reported as 0.42. UAACAGGGGGCCACAGCAGUAGCGUUCACGUCGCGGCCCCUGUCAGAUUCUGGUGAAUCUGCGAACUCUGCCGUAUAUCUC gave a self-cleavage of 1.03. In the case of UAACAGGGGGCCACAGCAGGAGCGUUCACGUCGCAGCCCCUGUCAGAUUCUGGUGAAUCCCCGAAUUCUGCUGUAUAUCUC, the self-cleavage is reported as 0.09. Work on UAACAGGGGGCCACAGCAGUAGCGUUCUCGUCGCAGACCCUGUCAGAUUCUGGUGAACCUGCGAAUUCUGCUGUAUAUCUC yielded a self-cleavage of 0.09. With UAACAGGGGGCCACAGCAGUAGCGUUCACGUCGCAGCCCCUGUCCGAUUCUGGUGAAUCUGGGAAUUCUGCUGUAUAUCUC the self-cleavage was 0.16. In the case of UAACAGGGGGCCACAGCAGUAGCGUUCACGUCGCAGCCCCUGUCCGAUUCUGGUGAAUCUGCGAAUUCCGCCGUAUAUCUC, the self-cleavage is reported as 0.24. UAACAGGGGGCCACAGCAGGAGCGUUCACGUCGCAGCCCCUGUCAGAUUCUGGUGAAUCUGCGAAUUCCGGUGUAUAUCUC showed a self-cleavage of 0.29. With UAACAGGGGGCCACAGCAGUAGCGUUCACGUCGCUGCCCCUGUCAGAUUCUGGUGGAUCUGCGAAUUCUGCUGUAUAUCUC the self-cleavage was 0.12. With UAACAGGGGGCCACAGCAGUAGCGUUCUCGUCGCAGCCCCUGUCAGAUUCUGGUGAAUCUGCGAAUUCUGCUGUAUACCUC the self-cleavage was 0.19. Variant UAACAGGGGGCCACAGCAGUAGCGUUCGCGUCGCAGCCCCUGUCAGAUCCUGGUGAAUCUGCGAGUUCUGCUGUAUAUCAC has a self-cleavage of 0.08. With UAACAGGGGGCCACAGCAGUAGCGUUCACGUCGCAGCCCCUGUCGGGUCCUGGUGAAUCUGCGAAUUCUGCAGUAUAUCUC the self-cleavage was 0. In the case of UAACAGGGGGCCACAGCAGGAGCGUUCACGUCGCAGCCCCUGUCAGAUUCUGGUGAAUCUGCGAAUUCUGCAGUGUAUCUC, the self-cleavage is reported as 1.03. In the case of UAACAGGGGGCCACAGCAGUAGCGUUCACGUCGCAGCCCCUGUCUGAAUCUGGUGAAUCUGCGAAUUCUGCUGUAUAUCCC, the self-cleavage is reported as 0.49. UAACAGGGGGCCACAGCAGUAGCGUUCACGUCGCGGCCCCUGUCAGAUUCUGGUGAAUCUGCGAAUUCCGCUGUAUAUCUC gave a self-cleavage of 0.48. For UAACAGGGGGCCACAGCAGGAGCGUUCACGUCGCAGCCCCUGUCAGAUUCUGGUGAAUCUGCGAAAUCCGCUGUAUAUCUC, the self-cleavage was 0.24. For UAACAGGGGGCCACAGCAGUAGCGUUCGCGUCGCUGCCCCUGUCAGAUUCUGGUGAAUCUGCGAAUUCUGCUGUAUAUCUC, the self-cleavage was 0.22. Work on UAACAGGGGGCCACAGCAGUAGCGUUCUCGUCGCAGCCCCUGUCAGAUUCUGGUGAAUCAGCGAAUUCUGCCGUAUAUCUC yielded a self-cleavage of 0.13. Work on UAACAGGGGGCCACAGCAGUGGCGUCCACGCCGCAGCCUCUGUCAGAUUCUGGUGAAUCCGCGUAUUCUGCUGUAUAUCUC yielded a self-cleavage of 0.04. Variant UAACAGGGGGCCACAGCAGGAGCGUUCACGUCGCAGCCCCUGUCAGAUUCUGGUGAACCUGCGAAUUCUGCCGUAUAUCUC has a self-cleavage of 0.16. For UAACAGGGGGCCACAGCAGUAGCGUUCUCGUCGCAGCCUCUGUCGGAUUCUGGUUAAUCUGCGAAUUCUGCUGUAUAUCUC, the self-cleavage was 0.15. Variant UAACAGGGGGCCACAGCAGGAGCGUUCACGUCGCAGCCCCUGUCAGAUUCUGGUGAAUCUGCGAAUUCUGCUGUAAACCUC has a self-cleavage of 0.99. Work on UAACAGGGGGCCACAGCAGUUGCGUUCACGUCGCAGCCCCUGUCAGAUUCUGGUGAAUCUGCGAACUCUGCUGUAUAUCUC yielded a self-cleavage of 0.32. With UAACAGGGGGCCACAGCAGUGGCGCUCACCUCGCAGCCCCCGUCAGAUUCUGGUGAAUCUGCGAAUUAUGCUGUAUACCUC the self-cleavage was 0.04. Work on UAACAGGGGGCCACAGCAGGAGCGUUCACGUCGCAGCCCCUGUCAGAUUCUGGUGAAUCUGCGAAUUCCGCUGUAUGUCUC yielded a self-cleavage of 0.51. For UAACAGGGGGCCACAGCAGGAGCGUUCACGUCGCAGCCCCUGUCAGAUUCUGGUGAACCCGCGAAUUCCGCUGUAUAUCUC, the self-cleavage was 0.2. UAACAGGGGGCCACAGCAGGAGCGUUCACGUCGCAGCCCCUGUCAGAUUCUGGUGAACCUGCGAGUUCUGCUGUAUAUCUC gave a self-cleavage of 0.12. With UAACAGGGGGCCACAGCAGUUGCGUUCACGUCGCGGCCCCUGUCAGACUCUGGUGAAUCAGCGAAUUCUGCUGUAUAUCUC the self-cleavage was 0.09. UAACAGGGGGCCACAGCAGGAGCGUUCACGUCGCAGCCCCUGUCAGAUUCUGGUGAAACCGCGAAUUCUGCUGUAUAUCUC gave a self-cleavage of 0.22. UAACAGGGGGCCACAGCAGUGGCGUUCACGCCGCAGCCCCUGUCACAUUCUGGUGAAUCUGCGUAUUCUGUUGUAUAUCCC gave a self-cleavage of 0.07. For UAACAGGGGGCCACAGCAGUAGCGUUCACGUCGCAGCCCCUGUCGGAUUCUGGUGAAUCUGCGAAUCCUGCUGUAUAUCAC, the self-cleavage was 0.15. With UAACAGGGGGCCACAGCAGUAGCGUUCACGUCGCGGCCCCAGUCAGGUUCUGGUGAGUCUGCGAAUUCAGCUGUAUAUCUC the self-cleavage was 0.08. For UAACAGGGGGCCACAGCAGGAGCGUUCACGUCGCAGCCCCUGUCAGAUUCUGGUGAACCUGCGAAUUCCGCUGUAUAUCUC, the self-cleavage was 0.3. UAACAGGGGGCCACAGCAGUAGCGUUCUCGUCGCAGCCCCUGCCAGAUUCUGGUGAAUCUGCGAAUUCUGCUGUAUAUCUC gave a self-cleavage of 0.13. Variant UAACAGGGGGCCACAGCAGUAGCGUUCACGUCGCGGCCCCUGUCAGGUUCUGGUGAGUCUGCGAAUUCUGCUGUAUAUCUC has a self-cleavage of 0.33. In the case of UAACAGGGGGCCACAGCAGGAGCGUUCACGUCGCAGCCCCUGUCAGAUUCUGGUGAAUCCGCGAACUCUGCAGUAUAUCUC, the self-cleavage is reported as 0.23. Variant UAACAGGGGGCCACAGCAGUUGCGUUCACGUCGCAGCCCCUGUCAGACUCUGGUGAAUCUGCGAAUUCUGCUGUAUAUCCC has a self-cleavage of 0.21. With UAACAGGGGGCCACAGCAGUAGCGUUCACGUCGCUGCCCCUGUCAGAUUCUGGUGAAUGUGCGAAUUCUGCUGUAUAUCUC the self-cleavage was 0.29. UAACAGGGGGCCACAGCAGUGGCGUUCACGACGCAGCCCCCGUCAGAUUCUGGUAAAUCUGCGAAUUCUGCUAUAUAUCUC gave a self-cleavage of 0.43.
